The antibiotic and cytotoxicity screens of Wong et al. (2023)
Some of the results follow.

Key:
HSkMC = human skeletal muscle cells; assay: cytotoxicity call (relative viability < 0.9); settings: 10 µM
HepG2 = assay: cytotoxicity call (relative viability < 0.9); settings: 10 µM
S. aureus RN4220 = assay: growth inhibition call (relative growth <= 0.2); settings: 50 µM

C[C@@H]1CCCCO[C@H](CN(C)C(=O)Cc2ccccc2)[C@@H](C)CN([C@@H](C)CO)C(=O)c2cc(NC(=O)CCC(F)(F)F)ccc2O1
inactive: cytotoxicity call (HSkMC) | cytotoxicity call (HepG2) | growth inhibition call (S. aureus RN4220)

C[C@@H]1CCCCO[C@@H](CN(C)C(=O)Nc2ccc3c(c2)OCO3)[C@H](C)CN([C@H](C)CO)C(=O)c2cc(NC(=O)c3ccncc3)ccc2O1
inactive: cytotoxicity call (HSkMC) | cytotoxicity call (HepG2) | growth inhibition call (S. aureus RN4220)

C=C1C(=O)N(OCC)c2ccccc2[NH+]1[O-] (configuration not stated)
inactive: cytotoxicity call (HSkMC) | cytotoxicity call (HepG2) | growth inhibition call (S. aureus RN4220)

CCCC#Cc1cnc2c(c1)C(=O)N([C@@H](C)CO)C[C@H](C)[C@@H](CN(C)S(=O)(=O)c1cccc(OC)c1)O2
inactive: cytotoxicity call (HSkMC) | cytotoxicity call (HepG2) | growth inhibition call (S. aureus RN4220)

C[C@@H]1CN([C@H](C)CO)S(=O)(=O)c2ccc(-c3ccc(C(=O)N(C)C)cc3)cc2O[C@H]1CN(C)C(=O)C1CCOCC1
inactive: cytotoxicity call (HSkMC) | cytotoxicity call (HepG2) | growth inhibition call (S. aureus RN4220)

C[C@@H]1CN([C@H](C)CO)C(=O)c2cc(NC(=O)CCC(F)(F)F)ccc2O[C@@H](C)CCCCO[C@H]1CN(C)C(=O)C1CCCCC1
inactive: cytotoxicity call (HSkMC) | cytotoxicity call (HepG2) | growth inhibition call (S. aureus RN4220)

COc1ccc(S(=O)(=O)N2C[C@@H](O)COC[C@@H]3O[C@H](CC(=O)N[C@H]4CCN(Cc5ccccc5)C4)CC[C@H]32)cc1
inactive: cytotoxicity call (HSkMC) | cytotoxicity call (HepG2) | growth inhibition call (S. aureus RN4220)

C[C@H]1CN([C@@H](C)CO)S(=O)(=O)c2ccc(-c3cccc(C#N)c3)cc2O[C@@H]1CN(C)C(=O)c1cccnc1
inactive: cytotoxicity call (HSkMC) | cytotoxicity call (HepG2) | growth inhibition call (S. aureus RN4220)

C[C@H]1CN([C@@H](C)CO)C(=O)c2c(c3ccccc3n2C)-c2ccccc2CO[C@H]1CN(C)Cc1ccc(Oc2ccccc2)cc1
inactive: cytotoxicity call (HSkMC) | cytotoxicity call (HepG2) | growth inhibition call (S. aureus RN4220)

Cc1ccc(OC(=O)n2c3ccccc3c3ccccc32)cc1
inactive: cytotoxicity call (HSkMC) | cytotoxicity call (HepG2) | growth inhibition call (S. aureus RN4220)

OC(Cn1cncn1)(Cn1cncn1)c1ccc(F)cc1F
inactive: cytotoxicity call (HSkMC) | cytotoxicity call (HepG2) | growth inhibition call (S. aureus RN4220)

C[C@@H]1CCCCO[C@H](CN(C)Cc2ccc(Cl)c(Cl)c2)[C@H](C)CN([C@@H](C)CO)C(=O)c2cc(NC(=O)c3ccccc3)ccc2O1
inactive: cytotoxicity call (HSkMC) | cytotoxicity call (HepG2) | growth inhibition call (S. aureus RN4220)

O=C(CCCCCNC(=O)OCCCCO[C@@H]1C[C@H](c2ccccc2)C=C(C(=O)N2CCOCC2)O1)NO
inactive: cytotoxicity call (HSkMC) | cytotoxicity call (HepG2) | growth inhibition call (S. aureus RN4220)

CCCc1cc(=O)[nH]c(=S)[nH]1
inactive: cytotoxicity call (HSkMC) | cytotoxicity call (HepG2) | growth inhibition call (S. aureus RN4220)

C[C@@H]1CN([C@H](C)CO)C(=O)c2cccc(NS(=O)(=O)c3cn(C)cn3)c2O[C@@H]1CN(C)S(=O)(=O)c1ccc(Cl)cc1
inactive: cytotoxicity call (HSkMC) | cytotoxicity call (HepG2) | growth inhibition call (S. aureus RN4220)

C[C@H](CO)N1C[C@H](C)[C@H](CN(C)Cc2ccc(C(=O)O)cc2)OCCCC[C@H](C)Oc2ccc(NC(=O)CCC(F)(F)F)cc2C1=O
inactive: cytotoxicity call (HSkMC) | cytotoxicity call (HepG2) | growth inhibition call (S. aureus RN4220)

C[C@@H]1CCCCO[C@@H](CN(C)C(=O)Cc2ccccc2)[C@@H](C)CN([C@H](C)CO)C(=O)c2cc(NC(=O)CCCCCC(=O)Nc3ccccc3N)ccc2O1
inactive: cytotoxicity call (HSkMC) | cytotoxicity call (HepG2) | growth inhibition call (S. aureus RN4220)

C[C@@H]1CN([C@@H](C)CO)C(=O)c2cc(NS(C)(=O)=O)ccc2O[C@@H](C)CCCCO[C@H]1CN(C)Cc1ccncc1
inactive: cytotoxicity call (HSkMC) | cytotoxicity call (HepG2) | growth inhibition call (S. aureus RN4220)

C[C@H](CO)N1C[C@H](C)[C@@H](CN(C)Cc2cncnc2)Oc2cc(-c3ccccc3F)ccc2S1(=O)=O
inactive: cytotoxicity call (HSkMC) | cytotoxicity call (HepG2) | growth inhibition call (S. aureus RN4220)
